The other results are listed elsewhere or left out. The energies were worked out here from pooled read counts, against the library average; single values are noisy.

For the experiment, the target named is T1, Pho4 (S. cerevisiae) (UniProt P07270).
T1 sequence: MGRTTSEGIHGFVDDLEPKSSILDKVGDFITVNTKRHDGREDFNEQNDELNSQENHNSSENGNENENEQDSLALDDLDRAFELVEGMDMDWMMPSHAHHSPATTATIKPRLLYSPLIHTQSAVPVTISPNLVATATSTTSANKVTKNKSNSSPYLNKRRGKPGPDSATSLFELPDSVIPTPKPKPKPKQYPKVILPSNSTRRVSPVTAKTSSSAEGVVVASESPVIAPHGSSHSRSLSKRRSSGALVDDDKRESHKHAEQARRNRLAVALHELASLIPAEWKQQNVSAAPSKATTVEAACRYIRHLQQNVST
The experiment in a line: relative binding free energy (BET-seq); higher = weaker binding. The following applies: reference: library average.
TTGTGCACGTGAGATA: the “relative binding free energy” value amounted to 0.27 kcal/mol.
As to TATGCCACGTGGGAGT, the “relative binding free energy” value is -0.18 kcal/mol.
Regarding TAGTGCACGTGGTTAA, the “relative binding free energy” value was -0.12 kcal/mol.
For the sequence GGAGACACGTGGTATT, the “relative binding free energy” value amounted to 0.04 kcal/mol.
Regarding AGTGACACGTGCGGAT, the “relative binding free energy” value was -0.07 kcal/mol.
For ATTCTCACGTGTTGGC the value was 0.18 kcal/mol; for TCATTCACGTGGTCTT, 0.28 kcal/mol.
Turning to AGTGTCACGTGTGCGT, the “relative binding free energy” value was 0.04 kcal/mol.
On to TAGTGCACGTGCGAGG, for which the “relative binding free energy” value was -0.1 kcal/mol.
In the case of AAGGGCACGTGGAATG, the “relative binding free energy” value is -0.08 kcal/mol.
TGAAGCACGTGTGTTC: the “relative binding free energy” value was found to be 0 kcal/mol.
On to ATTGTCACGTGTCGGC, for which the “relative binding free energy” value was found to be 0.04 kcal/mol.
Regarding TGAGTCACGTGGATCG, the “relative binding free energy” value was 0.09 kcal/mol.
Consider TTCCTCACGTGGGTGA, for which the “relative binding free energy” value was found to be 0.2 kcal/mol.
Regarding AGTCTCACGTGTTTAG, the “relative binding free energy” value stood at 0.2 kcal/mol.
Turning to TTCGTCACGTGACGGG, the “relative binding free energy” value turned out to be 0.24 kcal/mol.
Take GTCTTCACGTGTTTAA: the “relative binding free energy” value worked out at 0.17 kcal/mol.
Turning to AGGTGCACGTGTTCGT, the “relative binding free energy” value is -0.13 kcal/mol.
Consider GTGAACACGTGTATTT, for which the “relative binding free energy” value is 0 kcal/mol.
For GGTATCACGTGAGCGA the value was 0.25 kcal/mol.
As for TTATGCACGTGCGTAT, the figure is -0.07 kcal/mol.
Turning to GTTGGCACGTGTTGCT, the “relative binding free energy” value is -0.1 kcal/mol.
As for GATGACACGTGCAGGG, the “relative binding free energy” value was found to be 0.06 kcal/mol.
Take TGTGTCACGTGGCTTA: the “relative binding free energy” value was -0.16 kcal/mol.
Consider TGGATCACGTGGTCCT, for which the “relative binding free energy” value came to 0.17 kcal/mol.
With GGTCGCACGTGGAGAG, the “relative binding free energy” value was 0.18 kcal/mol.
For GGAAGCACGTGTGCGG, the “relative binding free energy” value is -0.09 kcal/mol.
For GGTGACACGTGATGAG, the “relative binding free energy” value is 0.15 kcal/mol.
As to CTTGTCACGTGGGGGC, the “relative binding free energy” value is -0.03 kcal/mol.
Take GGTGACACGTGGCATG: the “relative binding free energy” value is -0.1 kcal/mol.
For the sequence AGTCTCACGTGGGGGG, the “relative binding free energy” value came to 0.11 kcal/mol.
As for GTGAACACGTGATGCT, the figure is 0.4 kcal/mol; as for TACTGCACGTGGAGGT, -0.11 kcal/mol; as for TAGAGCACGTGGTAAG, -0.1 kcal/mol.
Regarding ATTTACACGTGCGGGC, the “relative binding free energy” value is 0.07 kcal/mol.
Turning to CAATTCACGTGTTGGG, the “relative binding free energy” value turned out to be 0.15 kcal/mol.
Take ATATTCACGTGTTACT: the “relative binding free energy” value was 0.22 kcal/mol.
As for GAGGACACGTGATAGG, the “relative binding free energy” value is 0.14 kcal/mol.
Regarding GTCTGCACGTGGCGGT, the “relative binding free energy” value was -0.09 kcal/mol.
Turning to AGGACCACGTGGTTGA, the “relative binding free energy” value was -0.1 kcal/mol.
With TGAGACACGTGCGGTG, the “relative binding free energy” value is -0.07 kcal/mol.
As to AAGTACACGTGCTTGT, the “relative binding free energy” value came out at 0.1 kcal/mol.
Take AGTGGCACGTGGCCGT: the “relative binding free energy” value was -0.18 kcal/mol.
On to GTCTACACGTGGGGCT, for which the “relative binding free energy” value was -0.03 kcal/mol.
With GGGGGCACGTGGCGTC, the “relative binding free energy” value is -0.18 kcal/mol.
Regarding GGTGCCACGTGCGTGA, the “relative binding free energy” value is -0.11 kcal/mol.
As for GTCTTCACGTGGGTTG, the figure is 0.22 kcal/mol; as for GATATCACGTGTTTTG, 0.27 kcal/mol.
As for TGGGGCACGTGGGCAT, the “relative binding free energy” value is -0.19 kcal/mol.
Regarding TTCGGCACGTGGGTGT, the “relative binding free energy” value is -0.17 kcal/mol.
As for TATAGCACGTGGTTGC, the “relative binding free energy” value was -0.18 kcal/mol.
As to GGGCGCACGTGTGGTC, the “relative binding free energy” value was -0.11 kcal/mol.
For TTTAGCACGTGATGGA the value was 0.07 kcal/mol; for TTCGTCACGTGTAGGG, 0.09 kcal/mol; for GTTATCACGTGATTAA, 0.18 kcal/mol.
TAATGCACGTGCAGGT: the “relative binding free energy” value was -0.11 kcal/mol.
Take CTGTGCACGTGTGAGC: the “relative binding free energy” value was determined as 0.1 kcal/mol.
As for GTTGTCACGTGCGGAA, the figure is -0.05 kcal/mol.
For the sequence ATTATCACGTGTAAGA, the “relative binding free energy” value is 0.14 kcal/mol.
As for CGGTTCACGTGTACTG, the figure is 0.31 kcal/mol; as for TCTGGCACGTGTTTCA, -0.08 kcal/mol.
As to CGGGGCACGTGCCGGG, the “relative binding free energy” value is -0.16 kcal/mol.
Take GGGAACACGTGTAGGC: the “relative binding free energy” value amounted to 0.19 kcal/mol.
As to AAATACACGTGGTTTT, the “relative binding free energy” value was 0.06 kcal/mol.
As for GTTGCCACGTGGATAG, the figure is -0.01 kcal/mol; as for CCGTGCACGTGTTGTA, -0.07 kcal/mol.
As for GAGGGCACGTGTGAAA, the figure is -0.07 kcal/mol; as for TGTTACACGTGTAAGA, 0.15 kcal/mol; as for AGGAACACGTGTTCGG, 0.02 kcal/mol.
Regarding GAGGTCACGTGAATTG, the “relative binding free energy” value turned out to be 0.54 kcal/mol.
With ACGTGCACGTGGGTGA, the “relative binding free energy” value is -0.16 kcal/mol.
With TTAAACACGTGGGTAG, the “relative binding free energy” value is -0.1 kcal/mol.
Take GAGGGCACGTGAAAAG: the “relative binding free energy” value is 0.23 kcal/mol.
Take TTGGTCACGTGGTGTC: the “relative binding free energy” value is 0.12 kcal/mol.
Consider TTCGTCACGTGATTAA, for which the “relative binding free energy” value stood at 0.28 kcal/mol.
For the sequence GGGGGCACGTGCGTTC, the “relative binding free energy” value was -0.19 kcal/mol.
As for TGTTACACGTGGAGTT, the “relative binding free energy” value turned out to be 0.22 kcal/mol.
For the sequence CGGTGCACGTGTGGAA, the “relative binding free energy” value came out at 0.13 kcal/mol.
For TTTGTCACGTGAAAGT the value was 0.29 kcal/mol; for AATCTCACGTGGGTTG, 0.15 kcal/mol; for TTTGACACGTGTTGGG, 0.14 kcal/mol.
Take TTCCTCACGTGTGTGG: the “relative binding free energy” value amounted to 0.35 kcal/mol.
Turning to TCTGGCACGTGGTTGT, the “relative binding free energy” value was -0.11 kcal/mol.
With TGTGGCACGTGAACAG, the “relative binding free energy” value is -0.01 kcal/mol.
Regarding AGGTACACGTGTTGCA, the “relative binding free energy” value turned out to be 0.08 kcal/mol.
For CTGAGCACGTGAGGAG the value was 0.24 kcal/mol.
Take CGGGTCACGTGAATGC: the “relative binding free energy” value turned out to be 0.41 kcal/mol.
For the sequence GAGGGCACGTGTTAGT, the “relative binding free energy” value is -0.06 kcal/mol.
On to GGGACCACGTGGGGTG, for which the “relative binding free energy” value was -0.24 kcal/mol.
With TAGGCCACGTGGGAGG, the “relative binding free energy” value is -0.27 kcal/mol.
As to GGCGTCACGTGTGTTG, the “relative binding free energy” value was 0.15 kcal/mol.
With GGTTGCACGTGGCGTA, the “relative binding free energy” value stood at 0 kcal/mol.
For AGGGGCACGTGGTATA the value was -0.14 kcal/mol; for GGGTACACGTGCGTGC, 0.05 kcal/mol.
TTATGCACGTGATCGG: the “relative binding free energy” value is -0.03 kcal/mol.
As for AGGTCCACGTGTGTTT, the figure is 0.03 kcal/mol; as for TTGGGCACGTGCGGAG, -0.09 kcal/mol; as for GTGGGCACGTGCGCTG, -0.2 kcal/mol.
TGGCTCACGTGATGGA: the “relative binding free energy” value came to 0.24 kcal/mol.
Regarding TCGAGCACGTGTGGCT, the “relative binding free energy” value is 0 kcal/mol.
For the sequence GGGTTCACGTGACGTT, the “relative binding free energy” value came out at 0.33 kcal/mol.
ATGTGCACGTGGAGGA: the “relative binding free energy” value is -0.06 kcal/mol.
With GGGATCACGTGAGTGA, the “relative binding free energy” value turned out to be 0.38 kcal/mol.
For the sequence AGGTTCACGTGGTATT, the “relative binding free energy” value was 0.23 kcal/mol.
Take TGGCGCACGTGGTAAG: the “relative binding free energy” value is -0.16 kcal/mol.
On to ATTGACACGTGGGCGG, for which the “relative binding free energy” value was -0.3 kcal/mol.
Turning to GGTAGCACGTGAAGGA, the “relative binding free energy” value was determined as 0.21 kcal/mol.
Regarding CAATTCACGTGGTGTA, the “relative binding free energy” value is 0.11 kcal/mol.
For GCGTTCACGTGTGAAT the value was 0.36 kcal/mol; for GAGTGCACGTGGGTAG, -0.07 kcal/mol; for TGAGGCACGTGAGGGC, 0.17 kcal/mol.
For AGATGCACGTGAGTTT the value was 0.3 kcal/mol; for AGGTGCACGTGTATTT, -0.05 kcal/mol; for CAAGGCACGTGTGCGT, -0.13 kcal/mol.
For TAGAACACGTGAGGTT, the “relative binding free energy” value stood at 0.31 kcal/mol.

Source of the values: the BET-seq Pho4 binding data (Le et al. 2018).
